{"source": "patent US5990094A", "about": "“Inhibitors of sorotonin N-acetyltransferase” (The Rockefeller University, priority 1998, dated 1999)", "proteins": {"B1": {"name": "GST-AANAT (Ovis aries) (protein)", "chain": "[here about 200 residues without letters]SDLVPRGSPEFPGRLEMSTPSVHCLKPSPLHLPSGIPGSPGRQRRHTLPANEFRCLTPEDAAGVFEIEREAFISVSGNCPLNLDEVQHFLTLCPELSLGWFVEGRLVAFIIGSLWDEERLTQESLALHRPRGHSAHLHALAVHRSFRQQGKGSVLLWRYLHHVGAQPAVRRAVLMCEDALVPFYQRFGFHPAGPCAIVVGSLTFTEMHCSLRGHAALRRNSDR", "notes": "The entire open reading frame of the DNA encoding sheep AANAT in the plasmid vector pET15b; made in house; host or cells: Escherichia coli BL21(DE3)pLysS"}}, "key": {"[1]": {"substrate": "CC(=O)SCCNC(=O)CCNC(=O)[C@H](O)C(C)(C)COP(=O)(O)OP(=O)(O)OC[C@H]1O[C@@H](n2cnc3c(N)ncnc32)[C@H](O)[C@@H]1OP(=O)(O)O", "assay": "purified protein, by the assay type", "settings": "other: two-substrate kinetics, sequential (ternary complex) fit; pH 6.8; 30.0 °C"}, "[2]": {"substrate": "NCCc1c[nH]c2ccccc12", "assay": "Two-substrate steady state kinetics with GST-AANAT", "assay_type": "biochemical, sheep", "settings": "other: two-substrate kinetics, sequential (ternary complex) fit; pH 6.8; 30.0 °C"}}}
{"protein": "B1", "values": [{"measurement": "Km", "setting": "[1]", "value": 212, "unit": "µM"}, {"measurement": "Km", "setting": "[2]", "value": 147, "unit": "µM"}]}
